Laboratory results: the antibiotic and cytotoxicity screens of Wong et al. (2023)
The list shows a part of the results.

What was measured:
HSkMC = human skeletal muscle cells; assay: cytotoxicity call (relative viability < 0.9); conditions: 10 µM
HepG2 = assay: cytotoxicity call (relative viability < 0.9); conditions: 10 µM
S. aureus RN4220 = assay: growth inhibition call (relative growth <= 0.2); conditions: 50 µM

Compound	cytotoxicity call (HSkMC)	cytotoxicity call (HepG2)	growth inhibition call (S. aureus RN4220)
COc1ccccc1C(=O)Nc1ccc2c(c1)C(=O)N(C)[C@H]1CC[C@H](CC(=O)Nc3cccc(C(C)C)c3)O[C@@H]1CO2	inactive	inactive	inactive
C[C@@H]1CN([C@H](C)CO)C(=O)c2cc(NC(=O)Cc3ccccc3)ccc2O[C@@H]1CN(C)Cc1ccc(Oc2ccccc2)cc1	inactive	inactive	inactive
C[C@@H]1CCCCO[C@@H](CN(C)C(=O)c2ccccc2)[C@@H](C)CN([C@@H](C)CO)C(=O)c2cc(NC(=O)c3ccccc3)ccc2O1	inactive	inactive	inactive
CC(C)NC(=O)Nc1ccc2c(c1)CC(=O)N([C@@H](C)CO)C[C@@H](C)[C@@H](CN(C)Cc1ccc(C(=O)O)cc1)O2	inactive	inactive	inactive
COC(=O)[C@@H]1C[C@H](C#N)N[C@@H]1c1ccco1	inactive	inactive	inactive
C[C@H]1CN([C@@H](C)CO)C(=O)c2cccc(NC(=O)c3ccc(-c4nccs4)cc3)c2O[C@H]1CN(C)Cc1ccc(C(=O)O)cc1	inactive	inactive	inactive
N[C@@H]1CCN(O)C1=O	inactive	inactive	inactive
COCCNC(=O)C[C@@H]1CC[C@H]2[C@@H](COC[C@@H](O)CN2C(=O)Nc2ccc3c(c2)OCO3)O1	inactive	inactive	inactive
Cc1ccc(S(=O)(=O)N(C)C[C@@H]2Oc3ccc(NS(=O)(=O)c4cn(C)cn4)cc3CC(=O)N([C@@H](C)CO)C[C@H]2C)cc1	inactive	inactive	inactive
CCN1CCN(C2=C(NS(=O)(=O)c3ccc(Br)s3)C(=O)c3ccccc3C2=O)CC1	inactive	active	inactive
CNC[C@@H]1Oc2ccc(NS(=O)(=O)c3cn(C)cn3)cc2C(=O)N([C@H](C)CO)C[C@@H]1C	inactive	inactive	inactive
